The whole screen tested about 330,000 compounds, of which about 4,200 (1.3%) were called active. Inconclusive means that the source gave no clear call. Such entries were picked first, then a sample of the others. The call rests on the fitted dose curve; in most records, active means well fitted activation curve with a large enough effect; inconclusive means small, poorly fitted or top-dose-only effect; inactive means no such curve, though single readings can be large or run the other way. Where the call is inconclusive, the potency comes from a doubtful curve fit.
test: qHTS screen for small molecules that induce genotoxicity in human embryonic kidney (HEK293T) cells expressing luciferase-tagged ELG1; conditions: HEK293T ELG1-luciferase reporter, luminescence, 16 h; series mostly up to 46 µM; activity change, positive = activation: at the top concentration; further: nearly all actives have a fitted effect of over 60% in size; on activity change, positive = activation: % of control where 0% means no effect
How it was run: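 DMSO vehicle served as control against compound-treated ELG1-luciferase HEK293T cells; exposure lasted 16 hr at 37 °C and 5% CO2, followed by ONE-Glo luminescence detection after 30 min.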
Potency means the concentration at half of the fitted maximal effect; tags describe the fitted curve by direction and shape.

| Compound | Potency | activity change, positive = activation |
| --- | --- | --- |
| N#C/C(=C\c1cccnc1)c1nc2c(s1)CCCC2 | active: 16.4 µM | – |
| CCc1ccc(-c2csc(NC(=O)Oc3ccccc3)n2)cc1 | inconclusive: 2.59 µM [activator, full curve, poor fit] | – |
| CCCCCc1ccc(-c2nnc(N)s2)cc1 | inconclusive: 20.6 µM [activator, single point] | – |
| CC(C)c1ccc(NC(=O)COC(=O)C2=COCCO2)cc1 | inconclusive: 20 µM [activator, single point] | – |
| O=C(/C=C/c1ccc2c(c1)OCO2)Nc1nc2ccc(F)cc2s1 | inconclusive: 3.66 µM [activator, partial curve] | – |
| c1ccc(Cc2nn3c(C4COc5ccccc5O4)nnc3s2)cc1 (stereo not drawn) | inconclusive: 29.1 µM [activator, single point] | – |
| C/C(=C\C(=O)c1ccc(C)cc1)Nc1cccc(O)c1 | inconclusive: 4.11 µM [activator, partial curve] | – |
| Cc1nnc2ccc(N3CCN(c4ccccn4)CC3)nn12 | inconclusive: 18.4 µM [activator, partial curve, poor fit] | – |
| CCC(C)(C)NC(=O)C(C(C)C)N(CC1CCCO1)C(=O)CNS(=O)(=O)c1ccccc1 (stereo not drawn) | – | inactive: -4.33% |
| C#CCN1C(=O)S/C(=C\c2ccc(-c3ccc(C(=O)O)cc3C)o2)C1=O | inconclusive: 4.11 µM [activator, partial curve, poor fit] | – |
| Cn1c(=O)cc(OCC(=O)NCCCN2CCN(Cc3ccccc3)CC2)c2ccccc21 | active: 18.4 µM | – |
| CCn1cc(SCC(=O)N2CCc3ccccc32)c2ccccc21 | inconclusive: 16.4 µM [activator, partial curve] | – |
| Cc1cc(C)cc(NC(=S)N(Cc2cccc(Br)c2)CC2CCC(C(=O)O)CC2)c1 (stereo not drawn) | – | inactive: -0.631% |
| COc1ccc(C(=O)N/N=C/c2cc(Br)ccc2O)cc1OC | inconclusive: 32.6 µM [activator, partial curve, poor fit] | – |
| CCC(=O)Nc1cnc(NC(=O)c2cccc(F)c2)cc1C | inconclusive: 7.31 µM [activator, partial curve] | – |
| Cc1ccc(NC(=O)COC(=O)C2=COCCO2)cc1 | – | inactive: 7.95% |
| COc1cc(CNc2nc3ccccc3s2)cc(OC)c1OC | – | inactive: -0.191% |
| COc1ccc(C(=O)c2sc(Nc3ccccc3F)nc2N)cc1 | inconclusive: 9.2 µM [activator, partial curve, poor fit] | – |
| COc1cccc(CNc2ccc3c(c2)CCC3)c1 | inconclusive: 20.6 µM [activator, single point] | – |
| COC(=O)C1=C(C(=O)OC)C(c2ccccc2O)c2sc(=O)[nH]c2S1 (stereo not drawn) | – | inactive: 2.82% |
| O=C(NNC(=S)Nc1ccccc1)c1cccs1 | inconclusive: 13 µM [activator, partial curve, poor fit] | – |
| Cc1ccc(C(=O)NCCc2ccccc2)cc1 | inconclusive: 0.447 µM [activator, partial curve, poor fit] | – |
| O=C(Cc1ccc(Br)cc1)N1CCN(c2ccccc2O)CC1 | inconclusive: 32.6 µM [activator, partial curve, poor fit] | – |
| COc1cccc(N2CC(O)=C(c3nc4ccccc4c(=O)[nH]3)C2=N)c1 | inconclusive: 16.4 µM [activator, single point] | – |
| C/C(=N\Nc1ccccn1)c1ccc(OC(F)F)cc1 | inconclusive: 25.9 µM [activator, partial curve, poor fit] | – |

| Compound | Potency | activity change, positive = activation |
| --- | --- | --- |
| C=CCOc1ccc(/C=N/Nc2ccccn2)cc1OC | inconclusive: 8.2 µM [activator, partial curve] | – |
| COc1ccc(-n2cc(CNCCc3cscn3)c(-c3ccccc3Cl)n2)cc1 | – | inactive: -2.06% |
| CCN1C(=O)c2cccc3c(S(=O)(=O)N(C(C)=O)c4ccc(OC(C)=O)cc4)ccc1c23 | – | inactive: 17.5% |
| CCOc1ccc(-c2cc(CCCC(=O)NCc3ccco3)no2)cc1 | – | inactive: 10.4% |
| CC(=O)c1sc(-c2ccc(Cl)cc2)cc1N | inconclusive: 23.1 µM [activator, single point] | – |
| Cc1noc(C)c1COC(=O)c1cnc(Cl)c(Cl)c1 | inconclusive: 18.3 µM [activator, single point] | – |
| c1cncc(-c2noc(-c3ccco3)n2)c1 | inconclusive: 6.51 µM [activator, partial curve] | – |
| CCCCCCSC1=C(C#N)C(=O)NC2(CCCCC2)S1 | inconclusive: 29.1 µM [activator, single point] | – |
| Cc1cc(C(=O)COC(=O)C(C)NC(N)=O)c(C)n1Cc1ccco1 (stereo not drawn) | – | inactive: 16.7% |
| CC(C)CCOc1ccc(C2=NNC(=O)CC2)cc1 | inconclusive: 25.9 µM [activator, partial curve, poor fit] | – |
| CN1CCN(c2ccc(NC(=O)CSc3ccccc3)cc2F)CC1 | active: 2.06 µM | – |
| COc1ccc(C(=O)/C=C/N(C)C)cc1 | – | inactive: 11.5% |
| O=C(CSc1ncccn1)NC(=O)Nc1ccc2c(c1)OCCO2 | – | inactive: 9.58% |
| CN(C)c1ccc(/C=N\NC(=O)c2cccc3cc[nH]c23)cc1 | inconclusive: 23.1 µM [activator, partial curve, poor fit] | – |
| O=C(Nc1ccc2oc(=O)ccc2c1)c1ccco1 | inconclusive: 25.9 µM [activator, single point] | – |
| COc1cccc(NC(=O)CCc2ccccc2)c1 | inconclusive: 29.1 µM [activator, single point] | – |
| CCCc1ccc(-c2csc(NC(=O)C3=COCCO3)n2)cc1 | – | inactive: 11.5% |
| COc1cc2nc(Cl)nc(N3CCN(C)CC3)c2cc1OC | – | inactive: 9.22% |
| COc1ccc(Nc2nnc(SCC(=O)Nc3cc(C)on3)s2)cc1 | inconclusive: 20.6 µM [activator, partial curve] | – |
| CC(=O)Nc1ccc(SCC(=O)NNC(=O)CN(C)S(=O)(=O)c2ccc(C)cc2)cc1 | – | inactive: -0.31% |
| CC(C)(C)n1ncc2c(=O)n(CC(=O)NCc3ccco3)cnc21 | inconclusive: 13 µM [activator, partial curve] | – |
| Cc1ccc(O)c(N=Cc2ccc(C)s2)c1 | – | inactive: 0.635% |
| COc1ccc(-c2cc3c(=O)n(CC(=O)NCc4ccc(Cl)cc4)ncn3n2)cc1 | inconclusive: 8.2 µM [activator, partial curve, poor fit] | – |
| CC(=O)Nc1nnc(SCc2ccc(F)cc2)s1 | inconclusive: 20.6 µM [activator, partial curve, poor fit] | – |
| CC(C)(C)n1cnc2cc(NC(=O)c3ccco3)ccc21 | inconclusive: 3.55 µM [activator, single point] | – |

| Compound | Potency | activity change, positive = activation |
| --- | --- | --- |
| Cc1cc(N)n(-c2cc(C)c3ccccc3n2)n1 | inconclusive: 3.26 µM [activator, full curve] | – |
| O=C(OCC(=O)c1cccc2ccccc12)c1ccc(CO)cc1 | – | inactive: 17.1% |
| Cc1ccsc1C(=O)N/N=C/C=C/c1ccccc1[N+](=O)[O-] | inconclusive: 29.1 µM [activator, single point] | – |
| Cc1cccc(C(=O)NNC(=O)c2ccc(NC(=O)C(C)(C)C)cc2)c1 | inconclusive: 11.2 µM [activator, partial curve, poor fit] | – |
| Cc1ccc(C(=O)Cc2nnc(C)s2)cc1 | inconclusive: 18.4 µM [activator, partial curve] | – |
| O=C(Cc1ccc(Cl)cc1)Nc1cccc(-c2nnc(-c3ccco3)o2)c1 | inconclusive: 20.6 µM [activator, single point] | – |
| O=C(CN1C(=O)NC2(CCCC2)C1=O)Nc1nc2ccccc2[nH]1 | – | inactive: 0.429% |
| O=C(/C=C/c1ccc(Cl)cc1Cl)Nc1cccc(S(=O)(=O)NC2=NCCC2)c1 | inconclusive: 2.06 µM [activator, partial curve] | – |
| O=c1oc2ccccc2c2oc3cc(O)c(O)cc3c12 | inconclusive: 18.3 µM [activator, partial curve, poor fit] | – |
| Cc1ccc2sc(NC(=O)CSc3nc(C)cc(C)c3C#N)nc2c1 | inconclusive: 4.61 µM [activator, partial curve] | – |
| CCc1ccc(NC(=O)c2cccnc2)cc1 | inconclusive: 11.2 µM [activator, partial curve, poor fit] | – |
| Cc1ccc(NC(=O)c2ccc3c(c2)OCCO3)cc1C | inconclusive: 3.66 µM [activator, partial curve, poor fit] | – |
| COc1cc(OC)c(OC)cc1CN1CCN(C(=O)CC(C)C)CC1 | inconclusive: 0.164 µM [activator, full curve, poor fit] | – |
| COc1ccc(OC)c(/C=N/NC(=O)c2csc3ccccc23)c1 | – | inactive: 0.595% |
| Cc1ccc(NC(=O)NCCN2C(=O)C3C4C=CC(C4)C3C2=O)cc1 (stereo not drawn) | active: 7.31 µM | – |
| C/C(=N/NC(=O)CNC(=O)c1cccnc1)c1ccccc1 | – | inactive: -1.01% |
| COc1ccc(C(=O)/C=C2\Sc3ccccc3N2C)cc1 | active: 1.64 µM | – |
| COc1ccccc1NC(=O)COC(=O)/C=C/c1ccc2c(c1)OCO2 | inconclusive: 23.1 µM [activator, partial curve, poor fit] | – |
| COc1ccccc1CN=c1c([N+](=O)[O-])nn(-c2ccc3c(c2)OCCO3)n1O | inconclusive: 2.31 µM [activator, full curve, poor fit] | – |
| Cc1ccc(CNc2cc(-c3nn4c(C)nnc4s3)ccc2C)s1 | inconclusive: 23.1 µM [activator, single point] | – |
| COc1nc(NCCc2ccc(OC)c(OC)c2)nc(Nc2ccccc2)n1 | – | inactive: -5.92% |
| COc1cccc(Oc2ccc(C(F)(F)F)cc2N)c1 | inconclusive: 23.1 µM [activator, partial curve, poor fit] | – |
| Cc1cccc(C(=O)OCC(=O)c2ccc3c(c2)OCCO3)c1O | inconclusive: 5.17 µM [activator, single point] | – |
